Test results taken from PubChem BioAssay AID757 (NMMLSC, 2007).
Out of some 190,000 compounds screened, about 520 (0.27%) were called active. The shares of active, inactive and inconclusive entries below differ from those in the screen.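 How the source made its calls: active means GTP binding activity at least 20 points away from the 100% control level, either lower or higher; inconclusive means compound flagged as likely green fluorescent, judged across all proteins; inactive means the rest.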

These compounds were tested against Ras-related C3 botulinum toxin substrate 1 (Homo sapiens) (UniProt P63000) (assay: wildtype Rac1 GTP binding modulators, primary screen, biochemical, GST-Rac1 beads, flow cytometry, multiplex (AID 757)). Details: fluorescent GTP binding, at 10 µM, actives lie on both sides, 0 = cold GTP competed, 100 = untreated.

| Compound | GTP binding activity (% of control) |
| --- | --- |
| C=C(C)Cn1c(-c2ccncc2)n[nH]c1=S | inconclusive: 89% |
| CCn1c(=N)c(S(=O)(=O)c2ccc(C)cc2)cc2c(=O)n3ccccc3nc21 | active: 74% |
| CCOC(=O)c1c[nH]c2nc(C)ccc2c1=O | inconclusive: 93% |
| COc1ccc(-c2ncncc2-c2csc(C)n2)c(O)c1OC | inconclusive: 107% |
| C=C(C)COc1ccc(-c2n[nH]c(C)c2-c2ccc(Br)cc2)c(O)c1 | active: 79% |
| N#Cc1c(N)oc(-c2ccco2)c1-c1ccco1 | inconclusive: 97% |
| COc1ccc(N2CCN(Cc3ccc(Br)s3)CC2)cc1 | inconclusive: 106% |
| CCc1ccc(OCCOCC(O)CNC2CCCC2)cc1 (stereo unspecified) | inactive: 99% |
| COc1ccc(-c2nnc(SCC(=O)N3CCCC(C)C3)o2)c(OC)c1 (stereo unspecified) | inconclusive: 104% |
| COc1ccccc1N1CCN(C(c2ccccc2Cl)c2nnnn2C(C)(C)C)CC1 (stereo unspecified) | inconclusive: 86% |
| CCOC(=O)CCc1c(C)nc(SCC(=O)O)c(C#N)c1C | inconclusive: 105% |
| Cn1nc(C(F)(F)F)c(C(=O)Nc2cccc(Cl)c2)c1Cl | inconclusive: 99% |
| CCCn1nc([N+](=O)[O-])c(C(C#N)c2nc3ccccc3o2)c(Cl)c1=O (stereo unspecified) | inactive: 100% |
| O=C(CSc1ncc(-c2ccc(F)cc2)n1Cc1ccco1)Nc1ccc2c(c1)OCO2 | inconclusive: 86% |
| O=C(COC(=O)c1cccs1)NC1CCCCC1 | inconclusive: 110% |
| Cc1ccc2nc(NC(=O)c3ccc(NS(=O)(=O)c4cccs4)cc3)sc2c1 | inactive: 94% |
| Cc1ccc(CN2CCN(Cc3cn[nH]c3C3CCCCC3)CC2CCO)cc1 (stereo unspecified) | inactive: 98% |
| CC(=O)CSc1nnc(-c2ccncc2)n1C | inconclusive: 103% |
| Cc1cc(C)cc(N(C(=O)CCC(=O)Nc2cc(C)on2)C(C(=O)NC2CCCC2)c2ccco2)c1 (stereo unspecified) | inconclusive: 91% |
| CCc1ccc2[nH]c3nc(SCc4nnc(-c5ccc(C)cc5)o4)nnc3c2c1 | inconclusive: 103% |
| CC1(/[N+]([O-])=C/c2ccccc2F)CCCCC1=O (stereo unspecified) | inactive: 100% |
| CC(Oc1ccccc1)C(=O)N1CCN=C1SCc1ccccc1 (stereo unspecified) | inactive: 98% |
| COC(=O)Cc1csc(NC(=O)CSc2nnc3ccccn23)n1 | inconclusive: 94% |
| COc1cccc(-n2c(SCC(=O)NC3CCCCC3)nc3n[nH]c(C)c3c2=N)c1 | inconclusive: 86% |
| N#Cc1c(OCC(=O)c2ccccc2)nc2c(c1-c1ccco1)CCc1ccccc1-2 | inconclusive: 106% |
| O=C(COCC(=O)N1CCOCC1)N1CCOCC1 | inactive: 97% |
